We go through 6 substances from paper PMC7480101.

Sequences of proteins named here, by UniProt entry; tags and fusion partners are left off.
UniProt Q14596: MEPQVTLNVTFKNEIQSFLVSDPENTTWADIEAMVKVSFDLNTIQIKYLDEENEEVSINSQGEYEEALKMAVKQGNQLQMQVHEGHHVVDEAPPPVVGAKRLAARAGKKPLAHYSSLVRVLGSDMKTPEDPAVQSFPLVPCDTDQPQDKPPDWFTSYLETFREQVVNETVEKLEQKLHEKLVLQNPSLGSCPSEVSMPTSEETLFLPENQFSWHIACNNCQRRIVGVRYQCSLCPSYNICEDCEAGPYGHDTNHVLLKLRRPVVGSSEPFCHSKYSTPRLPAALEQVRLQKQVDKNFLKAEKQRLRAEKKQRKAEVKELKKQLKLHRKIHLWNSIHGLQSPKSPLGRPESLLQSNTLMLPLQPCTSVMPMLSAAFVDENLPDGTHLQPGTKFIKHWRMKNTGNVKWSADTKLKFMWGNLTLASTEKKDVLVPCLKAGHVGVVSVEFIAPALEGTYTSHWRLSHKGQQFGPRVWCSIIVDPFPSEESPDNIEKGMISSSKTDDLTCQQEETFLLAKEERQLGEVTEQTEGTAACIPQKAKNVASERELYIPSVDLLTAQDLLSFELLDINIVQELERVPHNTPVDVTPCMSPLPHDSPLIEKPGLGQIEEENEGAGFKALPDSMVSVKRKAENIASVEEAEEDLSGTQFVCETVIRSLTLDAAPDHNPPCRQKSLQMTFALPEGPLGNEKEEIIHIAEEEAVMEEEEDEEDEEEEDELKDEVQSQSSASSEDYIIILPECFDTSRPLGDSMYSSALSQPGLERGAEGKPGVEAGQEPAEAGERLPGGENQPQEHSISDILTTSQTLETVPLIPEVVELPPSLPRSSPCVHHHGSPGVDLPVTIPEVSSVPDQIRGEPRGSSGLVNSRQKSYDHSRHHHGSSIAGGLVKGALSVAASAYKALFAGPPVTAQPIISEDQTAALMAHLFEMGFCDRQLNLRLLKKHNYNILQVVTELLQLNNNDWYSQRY
UniProt Q96CV9: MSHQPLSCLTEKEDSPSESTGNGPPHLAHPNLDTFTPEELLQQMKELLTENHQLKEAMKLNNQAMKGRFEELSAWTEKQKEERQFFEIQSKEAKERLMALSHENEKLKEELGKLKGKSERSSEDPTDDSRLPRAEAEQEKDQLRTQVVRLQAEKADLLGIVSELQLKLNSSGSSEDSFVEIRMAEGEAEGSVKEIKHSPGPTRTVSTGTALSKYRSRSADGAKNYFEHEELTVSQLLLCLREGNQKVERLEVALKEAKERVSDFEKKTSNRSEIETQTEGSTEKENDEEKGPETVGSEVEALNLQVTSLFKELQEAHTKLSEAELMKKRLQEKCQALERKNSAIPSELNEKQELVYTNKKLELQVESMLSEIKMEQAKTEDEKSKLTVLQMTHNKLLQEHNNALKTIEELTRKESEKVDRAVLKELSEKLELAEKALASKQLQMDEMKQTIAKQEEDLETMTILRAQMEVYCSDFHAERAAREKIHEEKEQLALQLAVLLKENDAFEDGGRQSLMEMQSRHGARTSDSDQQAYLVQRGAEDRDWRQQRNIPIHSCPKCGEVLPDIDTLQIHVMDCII
UniProt Q6ZNE5: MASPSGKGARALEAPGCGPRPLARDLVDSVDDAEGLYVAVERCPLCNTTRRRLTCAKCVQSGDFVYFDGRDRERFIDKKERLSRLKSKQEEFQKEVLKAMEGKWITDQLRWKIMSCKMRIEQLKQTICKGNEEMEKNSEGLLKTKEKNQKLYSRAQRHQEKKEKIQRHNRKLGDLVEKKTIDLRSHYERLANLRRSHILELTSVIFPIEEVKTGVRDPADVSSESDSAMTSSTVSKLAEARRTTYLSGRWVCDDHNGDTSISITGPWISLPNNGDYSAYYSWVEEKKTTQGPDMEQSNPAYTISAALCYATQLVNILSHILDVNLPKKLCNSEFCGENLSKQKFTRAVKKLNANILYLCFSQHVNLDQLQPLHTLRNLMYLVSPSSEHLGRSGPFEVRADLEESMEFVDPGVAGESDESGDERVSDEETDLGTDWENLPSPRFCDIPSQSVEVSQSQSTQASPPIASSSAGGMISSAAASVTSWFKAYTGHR
UniProt Q676U5: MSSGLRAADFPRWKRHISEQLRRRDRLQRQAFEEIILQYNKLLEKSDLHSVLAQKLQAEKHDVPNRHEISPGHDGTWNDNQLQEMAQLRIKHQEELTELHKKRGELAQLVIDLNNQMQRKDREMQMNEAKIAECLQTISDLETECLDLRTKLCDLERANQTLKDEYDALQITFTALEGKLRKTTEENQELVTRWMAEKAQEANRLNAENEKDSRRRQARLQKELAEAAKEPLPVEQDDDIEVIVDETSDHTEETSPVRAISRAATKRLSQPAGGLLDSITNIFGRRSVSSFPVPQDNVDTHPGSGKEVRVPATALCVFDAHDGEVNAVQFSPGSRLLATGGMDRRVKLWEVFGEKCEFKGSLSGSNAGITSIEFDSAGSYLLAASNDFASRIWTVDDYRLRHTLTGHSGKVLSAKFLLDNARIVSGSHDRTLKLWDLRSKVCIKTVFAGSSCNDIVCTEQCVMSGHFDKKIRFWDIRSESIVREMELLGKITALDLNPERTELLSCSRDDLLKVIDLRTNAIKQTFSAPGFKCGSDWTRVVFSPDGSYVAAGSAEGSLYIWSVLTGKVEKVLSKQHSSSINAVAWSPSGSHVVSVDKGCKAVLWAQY

Common to all, as to assay: Fluoppi (phase-separated fluorescent foci in cells); hAG-tagged autophagy adaptor and HA-Ash-6Ub transiently co-expressed in HeLa (WT, Penta KO, FIP200 KO, ATG5 KO, ATG9A KO) or HCT116 (WT, TBK1-/-) cells; foci formation and incorporation of a third protein into the foci read by immunostaining and confocal microscopy; some samples with 2 µM BX-795 for 15 h
For assay [1], the target named is hAG-NBR1 (human) (UniProt Q14596).
For assay [2], the target named is hAG-p62 (human) (UniProt Q13501).
Assay [3] has as its target hAG-OPTN (human) (UniProt Q96CV9).

No constants are given. Whether binding was seen depends on the method and setting. Some entries that bind do so weakly or less than the wild type.

Consider “3FLAG-GABARAP (from UniProt O95166 1-117)”, for which the binding result in assay [1] was “binds”.

As to “3FLAG-GABARAPL2 (from UniProt P60520 1-117)”, the binding result in assay [1] and in assay [2] was “binds” each time.

Take 3FLAG-ATG14 (from UniProt Q6ZNE5 1-492): the binding result in assay [3] was “no binding”.

As for 3FLAG-LC3C (from UniProt Q9BXW4 1-126), the binding entry in assay [1] and in assay [2] was “binds” each time.

As for 3FLAG-LC3A (from UniProt Q9H492 1-121), the binding result in assay [1] and in assay [2] was “binds” in each case.

In the case of ATG16L1 (from UniProt Q676U5 1-607), the binding entry in assay [3] is on record as “no binding”.
